# Measurements published in the supplement of paper PMC10126150.
# Sequences with one replicate were seen in a single cluster, so their values are uncertain.
# Test system: ATP
# Experiment: switch fluorescence ratio, 500 uM ATP over buffer (Cy3 cluster intensity, sum of 5 cycles each) (fold (ratio)); higher = stronger signal-on switching upon ATP binding; sequences stand for … in TCGTCGGCAGCGTCAGATGTGTATAAGAGACAGTTTTTTTTTTTTTTTTTTTTTTTTT…TC
# Settings: aptamer strand: ATP DNA aptamer (quencher-CACCTGGGGGAGTATTGCGGAGGAAGG + anchor), 100 nM annealed; ATP concentration: 500 uM; one replicate
# Outline: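 Per cluster, summed Cy3 intensity from the target cycles was divided by that from the buffer cycles to give the fluorescence ratio, then averaged per switch-domain sequence. Clusters outside 100-1000 RFU were excluded. The Cy3-labelled switching-strand clusters, on a modified Illumina MiSeq flow-cell, were annealed to 100 nM quencher-labelled ATP aptamer and imaged in selection buffer, then after 15 min with 500 uM ATP at 22 °C, for five cycles with NaOH stripping and re-annealing between them.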
# 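Note: ATP exposure 15 min at 22 °C before imaging.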
row,Sequence,switch fluorescence ratio
1,AGATTGTCGT,0.996
2,CCAACTAGAC,1.67
3,GCATGGTGAG,1.04
4,TTTCCTGTAG,1.02
5,CGGTTGGAAC,0.984
6,AGGTATTAA,1.02
7,GAAAAAGGGT,1.01
8,CACATTTT,0.924
9,TGGCGTGGAC,0.992
10,TCTGAAAGAC,1.51
11,ACCGGTCGTA,0.948
12,CATATGGT,0.958
13,GTCATTGG,1.05
14,ACAGGTTTAC,1.02
15,TGGGCGAGGG,0.979
16,TCAAGTGGAG,1.04
17,GCCGCGATTT,1.46
18,GAAATTCCTT,1.05
19,AATGTGTAGT,1.02
20,ACCTACTGCA,1.38
21,TGTTTGTCAC,0.965
22,TCGCCTACAC,1.49
23,ATGAAGAGTA,1.02

row,Sequence,switch fluorescence ratio
1,CAATCGCTTC,1.39
2,TACAGAGCCG,1.05
3,AAAAAGCGTT,0.986
4,GTTTGCTGAG,1.01
5,CCTAGTGAAT,0.997
6,ACTATAGGGT,1.04
7,GGAGTTAGTA,0.972
8,GAACTAGCGG,1.02
9,CGACATAATT,1.05
10,TTGATGATG,0.974
11,TAAATCAAGT,0.978
12,ACGGTAGGAG,0.975
13,TCTATATCTG,1
14,AAATATTCTG,0.971
15,CCTTGGAGGT,1.04
16,TGAGCCCGAG,1.01
17,CGGTCTCGAA,0.996
18,GCTCATACGA,2.92
19,AAGGGTAATC,1.01
20,ATGTCGCAA,1.87
21,ATGATCCACT,1.03
22,AAAATCGTGG,0.984
23,GAACGCTCTT,1.04

row,Sequence,switch fluorescence ratio
1,GACCAACGGT,0.955
2,TCAACAGATA,0.998
3,GCAGGTGGTT,1.18
4,AATGATAGCT,1
5,CGTACTTCTA,1.01
6,TGCTCGGGCT,0.998
7,TCTCTAGTTG,1.02
8,ATCATATACA,1.06
9,ATCTCTTTAC,1.06
10,TTTCCCGCCG,1.06
11,TAAGGGTAAC,1.16
12,TACAAGACAT,1.02
13,GATTGGAAGG,0.986
14,ACTCTGTACG,1.04
15,GTACTGCAAT,1.79
16,TCGTATGGTT,0.969
17,TCGTTCTTCC,1.74
18,CGTCATTGAC,1.01
19,ACAATGTTGC,0.983
20,AAGCACCATT,1.16
21,TGATTTACGT,1.04
22,TCTACGCCTT,1.63
23,GTTCTACA,0.999

row,Sequence,switch fluorescence ratio
1,ATGTGGCAAC,1
2,GACAGTCCGG,1.08
3,CGCGGGGAGA,1.1
4,ACATGGTTTC,1.01
5,GGGCGCTAGC,0.983
6,GTCCGTTAAC,2.01
7,AATAGAGACA,0.984
8,CGGATGGTAC,1.12
9,CCAATTCGAA,0.991
10,ATTCAGCTG,1.01
11,AAAGTTCACA,0.969
12,ATTGTTTCTT,1.01
13,TATCCGTTGA,1.06
14,GAGGCGGCTT,1.06
15,ATGGATTATG,0.989
16,ATGGGAGCAT,1.04
17,GATGGAAGCA,1.01
18,TTGCAACGTC,0.983
19,TATTACGGAC,1.36
20,ACTTTGAAAT,1.04
21,CTGGATGTGG,0.967
22,GAGGTAGGTA,1.01
23,GTATTGGGG,1.02

row,Sequence,switch fluorescence ratio
1,GCATTAAGAG,0.982
2,TATTGATCAC,0.98
3,AGCCCTGATG,1.02
4,TTCCTTTAG,1.21
5,ATTGTAGCGG,0.959
6,CGAGGCTTTA,1.42
7,TGAGATGATC,1.1
8,GCTTGTCATC,0.997
9,TCAAGAATAG,1.01
10,GGCATATCTA,1.04
11,GGCTTCAGC,0.997
12,ACCTGGTCTA,1.03
13,AGATTAGGGC,0.982
14,AGATTCTCAT,0.942
15,CTGAAATGAT,1.03
16,TTTGGGCTT,0.989
17,GGTGATCCAC,0.994
18,GACGACAGAT,1.14
19,AGGGGGAGCC,1.03
20,CGAGACGCCC,1.03
21,AAGTCAGCCC,1.05
22,CCCTAACACC,1.1
23,TAAGTAAAGA,1.02

row,Sequence,switch fluorescence ratio
1,CACACAATCT,1.04
2,GAGGGAGG,0.99
3,CGCAGGAGGG,1.03
4,GGCAGGGAGT,0.946
5,CTCGACTTGG,1.01
6,AGGCTCGTCG,0.982
7,CATCACGAGT,1.01
8,ATCTACTAGG,1.04
9,CCAGGACTCG,0.987
10,CGCTTTATGG,1.09
11,ATATGTAGCA,1.01
12,CCTAGAAGCT,1.12
13,GACTGTTTTG,1.01
14,CAGTGTATG,1.01
15,TGCGGAGTAT,1.04
16,CGGCCTGGCA,1.03
17,TATCAGCTTC,1.03
18,GGCCGGGGC,1.01
19,ATTTAATTA,1
20,TTATTAAGTA,0.989
21,GTTGCCGGAG,0.956
22,CGAGCGGTAG,1.15
23,ACGTTGCTAG,0.988

row,Sequence,switch fluorescence ratio
1,GGGCTGCGTC,0.988
2,TGTTAAAAG,0.976
3,TAGTATTGCT,1.04
4,TTGATTCTAG,1.01
5,GTCAGAACTT,1.02
6,GATTGGACGT,1.02
7,TGATAGGGAC,0.998
8,CTTGGCCCGC,1.09
9,AGATTTTAGA,0.946
10,CTAACGGCAG,0.993
11,ATTGGGGGA,0.977
12,TCGAGAAAGT,0.948
13,CCTGCCTAT,1.19
14,AGACGACTCC,1.26
15,TAAGACCTGG,0.982
16,TCGGAGCAAT,1.64
17,ATTGTATTCA,0.968
18,TTCTACGCTT,3.74
19,ATAAGGTGCA,1.06
20,CTCTGAATCA,1.03
